# Test results: PubChem BioAssay AID488969 (Vanderbilt High Throughput Screening Facility, 2010)
# In all, about 110,000 compounds were measured (“z-score”: median about -0.1, highest 2% from about 2 on). The list shows a part of the results. Activity calls are given as the source filed them.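 How the source made its calls: active means z-score in the third read window above 3 or below -3; inactive means the rest.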
# Biological target: Metabotropic glutamate receptor 8 (Rattus norvegicus) (UniProt P70579)
# Sequence of UniProt P70579 (P70579 whole entry, looked up): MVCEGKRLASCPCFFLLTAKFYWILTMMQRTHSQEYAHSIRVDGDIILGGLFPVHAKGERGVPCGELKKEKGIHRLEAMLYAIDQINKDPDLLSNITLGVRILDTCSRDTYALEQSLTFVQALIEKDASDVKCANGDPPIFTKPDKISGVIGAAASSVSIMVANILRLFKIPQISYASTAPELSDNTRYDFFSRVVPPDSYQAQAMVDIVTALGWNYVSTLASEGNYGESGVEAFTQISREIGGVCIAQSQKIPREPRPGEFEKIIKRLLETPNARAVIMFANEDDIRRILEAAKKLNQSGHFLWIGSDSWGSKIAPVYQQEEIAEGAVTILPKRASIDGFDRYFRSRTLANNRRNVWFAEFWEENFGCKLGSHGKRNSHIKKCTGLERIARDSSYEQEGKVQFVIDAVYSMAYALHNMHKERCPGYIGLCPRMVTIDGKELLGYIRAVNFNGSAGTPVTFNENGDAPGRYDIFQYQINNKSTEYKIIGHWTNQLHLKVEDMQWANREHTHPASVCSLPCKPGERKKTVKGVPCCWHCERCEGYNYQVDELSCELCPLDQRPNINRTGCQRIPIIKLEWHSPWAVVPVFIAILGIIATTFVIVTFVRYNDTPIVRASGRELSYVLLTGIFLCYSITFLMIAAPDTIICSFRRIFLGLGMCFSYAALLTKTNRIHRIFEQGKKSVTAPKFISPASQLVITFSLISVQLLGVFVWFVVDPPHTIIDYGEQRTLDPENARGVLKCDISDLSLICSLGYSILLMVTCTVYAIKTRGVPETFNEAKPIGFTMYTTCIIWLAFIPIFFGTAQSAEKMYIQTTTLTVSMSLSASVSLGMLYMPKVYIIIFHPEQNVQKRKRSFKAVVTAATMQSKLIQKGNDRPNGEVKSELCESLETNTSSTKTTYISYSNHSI
# Test: rat mGluR8 modulators via GIRK flux, primary screen, cell-based, thallium flux, HTS (AID 488969)
# Conditions: HEK293 rat mGluR8, GIRK (G protein-gated inwardly rectifying potassium channel) thallium flux, FluoZin2; at 10 µM; stronger effect = higher value; submaximal glutamate (EC20) added with thallium
row,Compound,z-score
1,COc1cccc(NC(=O)CSc2nnc(-c3ccoc3C)n2-c2ccccc2)c1,active: -3.15
2,CC(=O)Nc1ccc(S(=O)(=O)n2cnc3ccccc32)cc1,-0.791
3,COc1cc(OC)c(OC)cc1/C=N/NC(=O)c1ccc(=O)n(C)c1,-0.238
4,O=C(NN1CCCCC1)c1ccccc1,0.836
5,CC(NC(=O)Nc1cccnc1)(C(F)(F)F)C(F)(F)F,-0.00545
6,Cc1cc(C)c(NC(=S)NC(=O)c2ccc(-c3ccccc3)cc2)c(C)c1,0.489
7,COc1ccc(NC2=Nc3ccccc3N3C2=Nc2c(c(C)nn2-c2ccc(C)cc2)C3c2cccnc2)cc1 (configuration not stated),-0.323
8,CCn1c(COc2cccc(C)c2)nnc1SCC(=O)N1CCCC1,-0.388
9,CC1=C(C(=O)OCC(C)C)C(c2cc3c(cc2Br)OCO3)NC(=O)N1C (configuration not stated),-1.33
10,CCN(CC)c1ccc(NC(=O)c2ccc(Br)o2)c(C)c1,0.067
11,O=C(N/N=C\c1cccc(Br)c1)c1ccccc1-n1cccc1,-0.471
12,CCc1cccc2c(C(=O)COC(=O)c3nn(C)c(=O)c4ccccc34)c[nH]c12,-1.02
13,Nc1ccc(-n2nncc2-c2ccc(Cl)cc2)cc1,-0.392
14,O=C(Nc1ccccc1OC(F)F)c1ccc(F)cc1,0.162
15,Cc1cc2nc(-c3ccc(NC(=O)C(C)C)cc3)oc2cc1C,0.286
16,C/C(Cc1ccccc1)=N\NC(=O)CNC(=O)c1cccc(Br)c1,0.105
17,CCOC(=O)N1CCN(C(=O)C2CC(=O)N(Cc3ccc(OC)cc3)C2)CC1 (configuration not stated),-0.0789
18,COC(=O)c1cc(Cl)c(NC(=O)c2ccco2)cc1OC,-0.0432
19,O=C(NC1CCSC1=O)c1ccccc1 (configuration not stated),0.917
20,CC(C)Cc1nc(Nc2ccc(S(=O)(=O)N3CCCC3)cc2)c2nnn(Cc3ccccc3)c2n1,0.659
21,Cc1cccc(NC(=O)c2cc(Cl)ccc2[N+](=O)[O-])c1,-0.241
22,CCCCC(=O)Nc1ccc(C(=O)Nc2ccc(S(=O)(=O)Nc3nccc(C)n3)cc2)cc1,-0.312
23,CC(=O)N1CCN(C(C)=O)C1c1ccccc1,0.226
24,Cc1cccc(Nc2nc(N)nc(CN3CCC(C(N)=O)CC3)n2)c1C,-0.0699

row,Compound,z-score
1,CCCc1cc(=O)[nH]c(SCCOC(=O)c2ccccc2)n1,-0.349
2,O=[N+]([O-])c1cnccc1Nc1ccccc1,0.258
3,O=C(N/N=C/c1cccnc1)c1ccc([N+](=O)[O-])cc1Cl,0.0971
4,c1ccc2cc3[nH]c(CN4CCCCC4)nc3cc2c1,0.256
5,COC(=O)c1cccc(Nc2cc(C)nc(-c3ccccc3O)n2)c1,0.113
6,CCOc1ccc(C(=S)N2CCOCC2)cc1,-0.96
7,O=C(OCCN1C(=O)c2ccccc2C1=O)c1cccs1,0.871
8,COc1ccc2oc3cc(C)[n+]([O-])c(-c4ccc(Br)cc4)c3c2c1,-0.318
9,Cc1csc(NC(=O)CSc2nc(C(C)C)nc3c2c(=O)n(C)c(=O)n3C)n1,-0.261
10,COc1ccc(-c2cn[nH]c2N)cc1,0.0911
11,O=c1c2[nH]c3ccc(Cl)cc3c2ncn1Cc1ccccn1,-0.309
12,c1ccc(Cc2nn3c(Cn4cnc5ccccc54)nnc3s2)cc1,-0.232
13,Cc1nnc(SCCC#N)n(CCC#N)c1=O,1.64
14,COc1ccc(-n2c(C)cc(C(=O)CSc3nnc(-c4ccoc4C)n3C)c2C)cc1,1.15
15,Nc1nnc(-c2cccnc2)s1,1.22
16,COC(=O)c1ccccc1NC(=O)Nc1nnc(N2CCC(C)CC2)s1,0.108
17,COc1ccc(-n2c(Cn3c(=O)sc4ccccc43)nnc2SCC(=O)N2CCCCC2)cc1,-0.489
18,CCOC(=O)CCSCC(=O)Nc1nnc(C)s1,0.504
19,O=C(NC1CCCCC1)C(c1ccc(F)cc1)N(Cc1cccs1)C(=O)CN1C(=O)c2ccccc2S1(=O)=O (configuration not stated),0.916
20,CCC(=O)N1N=C(c2ccc(C)o2)CC1c1ccc(Br)cc1 (configuration not stated),-0.889
21,COc1cc(OC)c(C#N)c(S(=O)Cc2ccccc2)c1 (configuration not stated),-0.246
22,O=C(c1ccccc1)c1ccc2nc(-c3ccc(NC(=O)c4ccccc4F)cc3)[nH]c2c1,-0.162
23,Cc1cc(C(F)(F)F)c(C#N)c(Sc2ccccc2)n1,0.95
24,O=c1cc(N2CCN(Cc3ccccc3)CC2)[nH]c(=O)n1-c1cccc(C(F)(F)F)c1,0.278

row,Compound,z-score
1,CCCCCCC(=O)N/N=C/Cc1ccccc1,0.106
2,C=CCSc1[nH]c(=O)cc(C)c1C(N)=O,0.533
3,CCCCOc1ccc(C(=O)NCC2(c3ccc(OC)cc3)CCOCC2)cc1,-0.475
4,O=C(O)CCc1ccc(-c2ccccc2)n1NC(=O)c1ccco1,-0.274
5,Cc1nn(CC(=O)NCc2cccc3ccccc23)c(=O)c2ccccc12,-0.0519
6,Cc1nnsc1-c1nc2ccccc2[nH]1,0.291
7,CCc1ccc(C(=O)Cn2ncc(Cl)c(Cl)c2=O)cc1,-0.347
8,CCOC(=O)c1cnc(-n2nc(C)cc2C)nc1N1CCOCC1,-0.55
9,O=C(O)c1cc(NCc2ccccc2C(F)(F)F)ccc1N1CCOCC1,-0.168
10,Cc1ccc(C)c(-c2cc(C(=O)NCc3cccs3)c3ccccc3n2)c1,-0.0338
11,Cc1ccccc1NC(=O)Cn1c(C)nc2ccc(N)cc2c1=O,-0.213
12,O=C(COC(=O)c1cccc(N2C(=O)c3ccccc3C2=O)c1)Nc1ccccc1,active: 5.13
13,CSc1ccc(C(=S)N2CCN(CCO)CC2)cc1,0.0369
14,Cc1ccc(SCc2c(-c3ccccc3)nn(C)c2Cl)cc1,-0.179
15,CCn1c(SCC(=O)Nc2oc(-c3ccccc3)c(-c3ccccc3)c2C#N)nnc1-c1ccco1,-2.7
16,CCCOC(=O)CSC1=C(C#N)C(c2ccccc2OCC)C(C#N)C(=O)N1 (configuration not stated),-0.653
17,O=C(COc1ccc2ccccc2c1)NCCNC(=O)COc1ccc2ccccc2c1,-0.27
18,COC(=O)c1ccc(NC(=O)CNCc2ccncc2)cc1,-0.143
19,CCOC(=O)c1sc(NC(=O)CSc2n[nH]c(-c3ccc(Cl)cc3Cl)n2)c(C#N)c1C,-0.2
20,Cc1noc(C)c1COc1ccc(C(=O)OCC(=O)N2c3ccccc3NC(=O)C2(C)C)cc1,-1.16
21,CC(Sc1ccc(Cl)cc1)C(=O)NCC1CCCO1 (configuration not stated),-0.0934
22,COc1ccc(C)cc1S(=O)(=O)N1CCC(C(=O)NCCC2=CCCCC2)CC1,0.0645
23,CCOC(=O)N1CCN(S(=O)(=O)c2cc(OCC(=O)NC3CCCCC3)c(C)cc2Cl)CC1,-0.133
24,CCC(C)(C)n1nnnc1C(c1ccc(C)cc1)N(Cc1ccco1)Cc1cccs1 (configuration not stated),-0.0701
